For test [1], the system named is RAW-Dual. The test is described as follows: IRF Lucia reporter activity, fold change vs agonist alone; higher = enhanced IRF activity. Conditions: library stock concentration (final ~1000-fold dilution): 10 mM; cytotoxicity flag (confluency mask): not cytotoxic; agonist: MPLA (TLR4) […]. The gist of the method:
(§1)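 RAW-Dual macrophages (50,000 cells/well in DMEM, 384-well plates) received 50 nL of library stock by pin tool, then a PRR agonist 1 h later, and were kept at 37 °C, 5% CO2. After 20 hours, supernatant was read for IRF by QuantiLuc luminescence and for NF-κB by QuantiBlue absorbance at 620 nm. Reporter activity is fold change over agonist-alone wells. Cytotoxic wells had IncuCyte confluency below 70% of agonist controls in both mask sets.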

For test [2], the system named is RAW-Dual. Briefly: IRF Lucia reporter activity, fold change vs agonist alone; cytotoxicity flag (confluency mask): not cytotoxic; higher = enhanced IRF activity. An outline of the steps:
as §1

The mark [3] stands for this setting: agonist: 3'3'-cGAMP (STING) 10 ug/mL.

The results in this text go back to the supplement of paper PMC10037445.

The full ranking holds about 2,900 compounds; the median of “IRF Lucia reporter activity, fold change vs agonist alone” is about 0.9, and the highest 2% start at about 2.8. The list shows a part of the results.

Regarding `CCC(C)(Nc1ccnc(-c2c[nH]c3ncccc23)n1)C(=O)NCC(F)(F)F` (stereo not given), the “IRF Lucia reporter activity” value in the test with RAW-Dual [1] amounted to 0.41. As to `CCC(C)(Nc1ccnc(-c2c[nH]c3ncccc23)n1)C(=O)NCC(F)(F)F` (stereo not given) (library stock concentration (final ~1000-fold dilution): 10 mM), the “IRF Lucia reporter activity” value was 0.291 with RAW-Dual [2] (setting [3]) and 0.35 in the test on RAW-Dual [2] (agonist: LPS (TLR4) 0.1 ug/mL). For `CCOC(=O)CCNc1cc(N2CCc3ccccc3CC2)nc(-c2ccccn2)n1.Cl`, in the test on RAW-Dual [1], the “IRF Lucia reporter activity” value turned out to be 1. As for `CCOC(=O)CCNc1cc(N2CCc3ccccc3CC2)nc(-c2ccccn2)n1.Cl` (library stock concentration (final ~1000-fold dilution): 10 mM), the “IRF Lucia reporter activity” value with RAW-Dual [2] (setting [3]) was 1.03; in the test with RAW-Dual [2] (agonist: LPS (TLR4) 0.1 ug/mL) it was 1.04. As for `O=C(O)CCC(O)C(=O)O` (stereo not given) (library stock concentration (final ~1000-fold dilution): 10 mM water), the entries for the “IRF Lucia reporter activity” value in the test with RAW-Dual [2] (setting [3]) and with RAW-Dual [2] (agonist: LPS (TLR4) 0.1 ug/mL) were 1.24 and 0.916, respectively.

Consider `CC1=C(C(=O)OCCN(Cc2ccccc2)c2ccccc2)C(c2cccc([N+](=O)[O-])c2)C(P2(=O)OCC(C)(C)CO2)=C(C)N1` (stereo not given) (library stock concentration (final ~1000-fold dilution): 10 mM), for which the “IRF Lucia reporter activity” value in the test with RAW-Dual [2] (setting [3]) is 0.719; with RAW-Dual [2] (agonist: LPS (TLR4) 0.1 ug/mL), 1.23. As for `CC1=C(C(=O)OCCN(Cc2ccccc2)c2ccccc2)C(c2cccc([N+](=O)[O-])c2)C(P2(=O)OCC(C)(C)CO2)=C(C)N1` (stereo not given), in the test with RAW-Dual [1], the “IRF Lucia reporter activity” value is 0.768. As for `CCCNS(=O)(=O)Nc1ncnc(OCCOc2ncc(Br)cn2)c1-c1ccc(Br)cc1` (library stock concentration (final ~1000-fold dilution): 10 mM), the “IRF Lucia reporter activity” value with RAW-Dual [2] (setting [3]) was 0.396; in the test on RAW-Dual [2] (agonist: LPS (TLR4) 0.1 ug/mL), 0.362. Turning to `COc1c(O)cc(O)c2c(=O)cc(-c3ccccc3)oc12`, the “IRF Lucia reporter activity” value with RAW-Dual [1] is 0.708.

Turning to `COc1c(O)cc(O)c2c(=O)cc(-c3ccccc3)oc12` (library stock concentration (final ~1000-fold dilution): 10 mM), the “IRF Lucia reporter activity” value is 0.682 in the test with RAW-Dual [2] (setting [3]) and 0.768 with RAW-Dual [2] (agonist: LPS (TLR4) 0.1 ug/mL). With `Cc1ccc(NC(=S)NNc2c([N+](=O)[O-])cc(C(F)(F)F)cc2[N+](=O)[O-])cc1Cl` (library stock concentration (final ~1000-fold dilution): 10 mM), the entries for the “IRF Lucia reporter activity” value in the test on RAW-Dual [2] (setting [3]) and in the test on RAW-Dual [2] (agonist: LPS (TLR4) 0.1 ug/mL) were 0.0347 and 0.808, respectively.

With `Nc1ccc(S(N)(=O)=O)cc1` (library stock concentration (final ~1000-fold dilution): 10 mM), the “IRF Lucia reporter activity” value amounted to 1.02 in the test on RAW-Dual [2] (setting [3]) and 0.951 in the test on RAW-Dual [2] (agonist: LPS (TLR4) 0.1 ug/mL). `Nc1ccc(S(N)(=O)=O)cc1`: in the test on RAW-Dual [1], the “IRF Lucia reporter activity” value worked out at 0.943. Consider `O=C(CCN1CCN(C(=O)OCc2cc(Cl)cc(Cl)c2)CC1)c1ccc2[nH]c(=O)oc2c1` (library stock concentration (final ~1000-fold dilution): 10 mM), for which the “IRF Lucia reporter activity” value was 0.456 with RAW-Dual [2] (setting [3]) and 0.499 with RAW-Dual [2] (agonist: LPS (TLR4) 0.1 ug/mL). Consider `Cc1c(-c2ccc(C(N)=O)c3[nH]c4cc(C(C)(C)O)ccc4c23)cccc1-n1cnc2ccccc2c1=O` (library stock concentration (final ~1000-fold dilution): 10 mM), for which the “IRF Lucia reporter activity” value in the test with RAW-Dual [2] (setting [3]) was 0.0171; in the test on RAW-Dual [2] (agonist: LPS (TLR4) 0.1 ug/mL), 0.0247.
